B1: LINE1-mini (parent)
chain: GGCAGAGCUCAACACAGCGUGGCAAAGUGGCUGUGGCUAGACUGCC

The values that follow come from the RNAGym collection of RNA variant scans (doi:10.7554/elife.90254).

The source gives no read counts; variants with many changes may rest on few reads.

Variants of B1 are the subject of this data set. Description: self-cleavage, relative activity (ratio to wild type); higher = more cleavage; in vitro, sequencing; the parent is a self-cleaving ribozyme.
Regarding GGCAGAGCUCAACGUAGCGUGGCAAAGUGGCUGUGGCUAGACUGUC, the self-cleavage was found to be 0.04. Consider GGCAGAGCUCAACCCAGCGUGGCAAAGUGUCUGUGACUAGACUGCC, for which the self-cleavage worked out at 0.05. For GGCAGAGCUCAACCCAGCGUUGCAAAGUGCCUGUGGCUAGACUGCC, the self-cleavage amounted to 0.08. For GGCAGAGCUCAACGCAGCGUGGCAUAGUGGUUGUGGCUAGACUGCC the value was 0.02; for GGCAGAGCUCAACCCAGCGUCGCACAGUGGCUGUGGCAAUACUGUC, 0.02; for GGCAGAGCUCAACCCAGCGCGGCAAAGUGGCUGUGGAUAGACUGCC, 0.03. As to GGCAGAGCUCAACCCAGCGUGGCAAAGUGCAUAUGGCUAGACUGCC, the self-cleavage amounted to 0.06. For the variant GGCAGAGCUCAACGCAGCGUGGCAAAGUGGCUGUGGCUGGGCUGCU, the self-cleavage came to 0.02. On to GGCAGAGCUCAACCCAGCGUGGCAAAGUGGCACUGGAUAGACUACC, for which the self-cleavage was 0.02. For the variant GGCAGAGCUCAACGCAGCGUGGCAAUGUGGCUGUGGCUAUACUGCC, the self-cleavage came to 0.03. GGCAGAGCUCAACGCAGCGUGGCGCAGUGUCCGUGGCUAGACUGCC: the self-cleavage worked out at 0.01. As to GGCAGAGCUCAACGCAGAGUGGCACGCUGGCUGUCGCUAGACUGCC, the self-cleavage turned out to be 0.02. Take GGCAGAGCUCAACGCAGCGUGGCACAGUGGCUGUGGCUACACUUCC: the self-cleavage stood at 0.02.

Regarding GGCAGAGCUCAACCCAGCGUGGCAAAGUGGCUGAGGCCAGACUUCC, the self-cleavage was 0.01. For GGCAGAGCUCAACGCAGCGUGGCGAAGUUGCUGUGGCUAGACUGGU, the self-cleavage came to 0.03. As for GGCAGAGCUCAACCCAGCGUGGCAAAGUAUCUGUGGCUAGAUUGCC, the self-cleavage was 0.13. GGCAGAGCUCAACCCAGCGUGACAAACUGGCUGUGGCUAGAUUGCC: the self-cleavage was found to be 0.01. Take GGCAGAGCUCAACGCAGCGUGGCACAGUGUCUGUGGCUAUACUGCC: the self-cleavage stood at 0.15. For GGCAGAGCUCAACCCAGCGUGCCACAGUGGCUGUGGCUAGACUGCC the value was 0.02. For GGCAGAGCUCAACGCAGCGUGGCGAAGUGCCUGUGGCUAGCCUGCC the value was 0.06. For GGCAGAGCUCAACCCAGCGUGGCAAAGUGGCUGUGGCUACACUGCU the value was 0; for GGCAGAGCUCAACGCAGCGUGGCAACGUGGCAGUGGCUAGACUGCC, 0. Take GGCAGAGCUCAACGCGGCGUGUCAAAGUGGCUGUGGCUAGACUGCC: the self-cleavage was determined as 0.07. As to GGCAGAGCUCAACCCAGCGGGGCAAAGUGGCUGUGGCUAGACCGCC, the self-cleavage is 0.13. As for GGCAGAGCUCAACCCAGCGUUGCAAAGUGGCUGUGGCUAGACUGCU, the self-cleavage stood at 0.01. Take GGCAGAGCUCAACCCAGCGUAGCAAAGUGUCUGUGGCUAGACUUCC: the self-cleavage is 0.

For GGCAGAGCUCAACCCAGCGUGGCAAAGUGGCUCUGGCUAGAGUGCC, the self-cleavage turned out to be 0.04.

Regarding GGCAGAGCUCAACCCAGCGUGGCAAAUUGGCUGUGGCGAGACUGCC, the self-cleavage is 0.02.

As to GGCAGAGCUCAACGCAGAGUGGCAAAGUGCCUGUGGCUAGACUGCC, the self-cleavage amounted to 0.27. As to GGCAGAGCUCAACCCAGCGGGGCAAAGUGCCUCUGGCUAGACUGCC, the self-cleavage came to 0.01.

Regarding GGCAGAGCUCAACCCAGCGUGGCAAAGUGGCUGAGCUUAGACUGCC, the self-cleavage is 0.02. Regarding GGCAGAGCUCAACGGAGCGUGGCAAAGUGGGUGUGGCUAGACUGCC, the self-cleavage turned out to be 0.01.

On to GGCAGAGCUCAACCCAGCGUGACAAAGUGGCUGUGGCGAGACUGCC, for which the self-cleavage worked out at 0.01. For the variant GGCAGAGCUCAACGCAGGGUGGCUAAGUGGCUGUGGCUAGACUGCC, the self-cleavage is 0.1.

As to GGCAGAGCUCAACCCAGCGUUGCAAAGUGGCUGGGGCAAGAGUGCC, the self-cleavage turned out to be 0. Regarding GGCAGAGCUCAACGCAGCGUGGCACAGUGGCUCUGGCUAGACUGCC, the self-cleavage worked out at 0.05. For GGCAGAGCUCAACCCAGCGUGGCAAAGUCGCAGUGUCUACACUGCC the value was 0.16; for GGCAGAGCUCAACCCAGCGUGCCAAAGUGGCUUUGGCUGGACUGCC, 0; for GGCAGAGCUCAACCCAGCGUGGCAAAGUGGCUAUGGCUAGACUCCC, 0.02. For GGCAGAGCUCAACCCAGCGUGGCAAAGUGGCUGGGGCUAAACUGCC the value was 0; for GGCAGAGCUCAACGAAGCGUGGCAAAGUGGCUGUGGCUAGAAUGCC, 0.23.

Regarding GGCAGAGCUCAACCCAGCGUGGCAAAGUGGCUAUGCCUAGACUGCC, the self-cleavage was found to be 0.01. For the variant GGCAGAGCUCAACGCAGAGUGGCAAAGUGGCUGUGGCUGGACUGCC, the self-cleavage came to 0.56. With GGCAGAGCUCAACCCAGCGUGGCAAAGCGGCUGUGGCUCUACUGCC the figure was 0.02; with GGCAGAGCUCAACCCAGCGUGGCAAAGUGUCUGUGGCUAGAUGGCC, 0.02; with GGCAGAGCUCAACGCAGAGUGGCAAAGCGGCUGUGGCUAGACUGUC, 0.03.

Turning to GGCAGAGCUCAACGUAGCGUGGCAGAGUGGCUGUGGCUAGACUGCU, the self-cleavage was 0.06.

Turning to GGCAGAGCUCAACCCAGCGUGGCAAAGUGGCUGGGGCUAGACUCCC, the self-cleavage is 0.14. For GGCAGAGCUCAACGCAGAGUGGCAAAGCUUCUGUGGCUAGACUGCC, the self-cleavage amounted to 0.3. Take GGCAGAGCUCAACCCAGCGUGGCAAAAUGGCUGUGGCUAUACUGCC: the self-cleavage is 0.02.

With GGCAGAGCUCAACGCAGUGUGGCAAAGUGGCUGUGGUUAGACUUGC, the self-cleavage was 0.15. For GGCAGAGCUCAACCCAGCGUGGCAAAGUGGCUGUAUCUAGACUGCC, the self-cleavage came out at 0.18. Regarding GGCAGAGCUCAACCCAGCGUGGCAAAGCGGCUGUGGCUAGACUACC, the self-cleavage is 0.13. Take GGCAGAGCUCAACCCAGCGUUGCAAAGUGGCUGUGGCUAGUCUGCC: the self-cleavage worked out at 0.1. Consider GGCAGAGCUCAACGCAGAGUGGGAAAGUGGCUGUGGGUAGACUGCC, for which the self-cleavage was found to be 0.02. As to GGCAGAGCUCAACCCAGCGUGGCAAAGAAUCUGUGGCUAGACUGCC, the self-cleavage was 0.1.
